Measured values as given in PubChem BioAssay AID588342 (National Center for Advancing Translational Sciences (NCATS), 2011).
Values joined by “and” are separate entries in the source; they are usually repeats but may differ in a detail not shown here. Equal values may be shown once. The whole screen tested about 360,000 compounds, of which about 25,000 (6.9%) were called active. Inconclusive means that the source gave no clear call. Such entries were picked first, then a sample of the others. Calls come from the whole dose curve; as a rule, active = well fitted inhibition curve with a large enough effect; inconclusive = small, poorly fitted or top-dose-only effect; inactive = flat fitted curve, though single readings scatter. A potency beside an inconclusive call is a rough fit, not a confirmed value.

Target: Luciferin 4-monooxygenase (Photinus pyralis) (UniProt P08659)
Chain of UniProt P08659 (P08659 whole entry, looked up): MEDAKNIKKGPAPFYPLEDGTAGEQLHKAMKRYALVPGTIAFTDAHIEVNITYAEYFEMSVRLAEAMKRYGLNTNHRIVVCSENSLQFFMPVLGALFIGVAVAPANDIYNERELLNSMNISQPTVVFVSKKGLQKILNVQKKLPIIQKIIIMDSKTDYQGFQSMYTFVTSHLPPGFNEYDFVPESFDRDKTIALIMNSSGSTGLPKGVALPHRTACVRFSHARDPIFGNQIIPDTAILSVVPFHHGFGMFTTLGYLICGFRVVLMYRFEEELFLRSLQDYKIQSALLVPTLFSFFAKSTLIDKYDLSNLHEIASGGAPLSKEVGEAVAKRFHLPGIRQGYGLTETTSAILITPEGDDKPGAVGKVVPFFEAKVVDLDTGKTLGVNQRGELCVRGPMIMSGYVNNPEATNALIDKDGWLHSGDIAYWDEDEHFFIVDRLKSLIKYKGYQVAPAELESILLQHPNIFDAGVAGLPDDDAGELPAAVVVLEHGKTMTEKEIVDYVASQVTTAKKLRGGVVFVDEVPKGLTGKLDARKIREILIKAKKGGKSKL
Experiment: qHTS profiling assay for firefly luciferase inhibitor/activator using purifed enzyme and Km concentrations of substrates (counterscreen for miR-21 project); note: nearly all actives have a fitted effect of over 55% in size;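 for activity change, negative = inhibition: plate controls were vehicle for no effect and reference inhibitor for full effect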
Settings: purified FLuc, luminescence inhibition; series mostly up to 57.5 µM; activity change, negative = inhibition: at the top concentration
Outline: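 Purified P. pyralis luciferase, 10 nM final, with Km-level 10 uM D-luciferin and 10 uM ATP in 50 mM Tris acetate pH 7.5, 10 mM Mg acetate, 0.01% Tween-20, 0.05% BSA; 6-point qHTS titration about 60 µM downward; luminescence read.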
Potency is the fitted concentration of half-maximal effect; tags give direction and shape of the fitted curve.

| Compound | Potency | activity change, negative = inhibition |
| --- | --- | --- |
| COc1cc(NC(=O)N2CCC3(CC2)Nc2ccccc2-n2cccc23)cc(OC)c1OC | inconclusive: 21.3 µM [inhibitor, partial curve, poor fit] | – |
| Cc1cc(C2=NNC(=NCc3ccccc3)SC2)c(C)n1-c1c(C)n(C)n(-c2ccccc2)c1=O | – | inactive: 5.18% |
| COc1cc([N+](=O)[O-])ccc1NC(=O)c1cccc(NC(=O)C(C)C)c1 | inconclusive: 19 µM [inhibitor, partial curve, poor fit] | – |
| O=C(Nc1ccc(F)c(Cl)c1)c1cc(-c2ccco2)on1 | inconclusive: 6.75 µM [inhibitor, partial curve, poor fit] | – |
| COc1cccc(-c2sc3ccc(OC)cc3c2-c2ccc(OC)cc2F)c1 | inconclusive: 13.5 µM [inhibitor, single point] | – |
| COc1ccccc1C(=O)Nc1ccc2c(c1)OCCO2 | active: 7.57 µM | – |
| CC(C)C(=O)NNC(=O)CSc1ncnc2c1cnn2-c1ccccc1Cl | – | inactive: -1.94% |
| O=C(Nc1ccccc1C(=O)NC1CCCC1)NC1CCCC1 | inconclusive: 23.9 µM [inhibitor, single point] | – |
| COc1ccc(CNc2ccc3c(c2)nc(C)n3C)cc1OC | inconclusive: 21.3 µM [inhibitor, partial curve, poor fit] | – |
| O=C(CSc1nnc(-c2ccccc2F)o1)Nc1ccccc1Cl | – | inactive: 1.36% |
| O=C(CCCN1C(=O)/C(=C/c2cccs2)SC1=S)Nc1ccc(O)c(C(=O)O)c1 | inconclusive: 37.9 µM [inhibitor, single point] | – |
| COc1ccc(NC(=S)NCc2cccs2)cc1 | inconclusive: 37.9 µM [inhibitor, partial curve, poor fit] | – |
| Cc1nc2cc(NC(=O)Nc3ccc(Br)cc3)ccc2o1 | active: 2.39 µM | – |
| O=C(O)c1ccccc1SCc1nc2ccccn2c1Br | inconclusive: 30.1 µM [inhibitor, partial curve, poor fit] | – |
| O=C(c1cc(COc2c(F)cccc2F)on1)N1CCc2ccccc2C1 | inconclusive: 37.9 µM [inhibitor, partial curve, poor fit] | – |
| COc1cc(NC(=O)c2ccccc2[N+](=O)[O-])c(C(=O)O)cc1OC | inconclusive: 26.9 µM [inhibitor, partial curve, poor fit] | – |
| COc1cccc(-c2csc(-c3c(N)c(C(=O)c4ccccc4)n4ccccc34)n2)c1 | – | inactive: -0.0138% |
| O=C(NC1CCCCC1)c1ccc(-c2cccc([N+](=O)[O-])c2)o1 | active: 2.69 µM | – |
| COc1cccc(NC(=O)COC(=O)c2ccc3c(c2)OCO3)c1 | – | inactive: -13.9% |
| O=C(Oc1ccc(C(=S)N2CCCCC2)cc1)c1ccccc1F | inconclusive: 19 µM [inhibitor, partial curve] | – |
| CCCCCCCCn1c2c(c(=N)c3ccccc31)CCC2 | – | inactive: -1.16% |
| O=C(/C(=C/O)N=Nc1ccccc1)c1ccco1 | inconclusive: 37.9 µM [inhibitor, partial curve, poor fit] | – |
| COc1cc(C(=O)N=c2sc3c(C)ccc(OC)c3n2C)cc(OC)c1OC | inconclusive: 5.36 µM [inhibitor, full curve] | – |

| Compound | Potency | activity change, negative = inhibition |
| --- | --- | --- |
| CN(C)c1ccc(-n2cccc2)cc1 | inconclusive: 21.3 µM [inhibitor, single point] | – |
| COC(=O)C1=CN(c2cc(C)cc(C)c2)C=C(C(=O)OC)C1c1ccc(OC)c(O)c1 | inconclusive: 26.9 µM [inhibitor, single point] | – |
| c1ccc2c(-c3nnc(SCc4cn5ccccc5n4)o3)c[nH]c2c1 | inconclusive: 16.9 µM [inhibitor, partial curve, poor fit] | – |
| CCOC(=O)N1CCN(Cc2nc3cc(NC(=O)CC)ccc3n2CC)CC1 | – | inactive: 0.0734% |
| CCOC(=O)C1=C(N2CCCCC2)c2cc3c(n2C1=O)CCCC3 | inconclusive: 21.3 µM [inhibitor, single point] | – |
| CC(C)(C)n1ncc2c(=O)n(CC(=O)N3CCCC3)cnc21 | – | inactive: -0.929% |
| COc1ccc(NC(=O)Cn2c(=O)n(Cc3ccccc3)c(=O)c3oc4ccccc4c32)cc1Cl | active: 2.39 µM | – |
| CCOC(=O)COn1c(=O)c(-c2ccc(OCC)cc2)[n+]([O-])c2ccccc21 | inconclusive: 37.9 µM [inhibitor, single point] | – |
| Cc1sc(NC(=O)c2ccc(Cl)s2)c(C(N)=O)c1C | active: 2.39 µM | – |
| Cc1nn(-c2ccccc2)cc1/C=N/NC(N)=S | inconclusive: 37.9 µM [inhibitor, single point] | – |
| CCOc1cc(Cl)c(S(=O)(=O)NCCCN2CCOCC2)cc1Cl | – | inactive: 3.48% |
| CC(C)Oc1ccccc1/C=N/NC(=O)c1ccc(F)cc1 | inconclusive: 15.1 µM [inhibitor, partial curve] | – |
| O=C(Nc1ccc(F)c(F)c1)c1ccccc1 | inconclusive: 23.9 µM [inhibitor, single point] | – |
| O=C(Nc1nc(-c2cccs2)c(C(=O)C(F)(F)F)s1)c1ccco1 | inconclusive: 23.9 µM [inhibitor, single point] | – |
| COc1ccc(C(=O)NCCNc2ccccc2[N+](=O)[O-])cc1 | active: 4.78 µM | – |
| CC(C)C(=O)Nc1ccc(NC(=O)c2ccc(COc3ccccc3)cc2)cc1 | – | inactive: 0.478% |
| Cc1occc1C(=O)NCCCCNC(=O)c1ccoc1C | – | inactive: -0.639% |
| CCOc1cccc2cc(C(=O)NCc3ccc(F)cc3)c(=N)oc12 | active: 15.1 µM | – |
| O=C(NCCO)c1ccc(CSc2nc3ccccc3[nH]2)cc1 | inconclusive: 26.9 µM [inhibitor, single point] | – |
| CCOC(=O)c1[nH]c(C)c(C(=O)OC)c1C | inconclusive: 23.9 µM [inhibitor, partial curve, poor fit] | – |
| COCCCNC(=O)CCC(=O)NNc1nc2ccccc2c2nc(-c3ccccc3)nn12 | inconclusive: 37.9 µM [inhibitor, single point] and inconclusive: 23.9 µM [inhibitor, partial curve, poor fit] | – |
| CCOc1ccc(NC(=O)CSc2nnc(-c3ccncc3)n2-c2ccccc2)cc1 | – | inactive: -3.48% |
| Cc1cc(=O)[nH]c(N/N=C/c2ccc(N(C)C)cc2)n1 | inconclusive: 30.1 µM [inhibitor, single point] | – |
